Experiments:
Settings in all cases: 168 h, read-out: control
Botrytis cinerea = Botrytis cinerea (Gray mold) in vitro test, radial growth on Potato Dextrose Agar
Pyricularia oryzae = assay: microbe, parasite or virus in culture; type: cell-based
Alternaria solani = Alternaria solani (early blight of tomato/potato) in vitro test, radial growth on Potato Dextrose Agar
Rhizoctonia solani = system: Rhizoctonia solani

Measured: inhibition of growth at 300 ppm

Cc1cc(C(=O)CSc2c(C)cccc2C)c(C)cc1N=CN(C)C [Compound 107, N′-(4-(2-((2,6-dimethylphenyl)thio)acetyl)-2,5-dimethylphenyl)-N,N-dimethylformimidamide]
> 70%: Botrytis cinerea | Pyricularia oryzae

CCN(C)C=Nc1cc(C)c(C(=O)COc2cccc(SCCC(F)=C(F)F)c2)cc1C [Compound 78, N′-(2,5-dimethyl-4-(2-(3-((3,4,4-trifluorobut-3-en-1-yl)thio)phenoxy)acetyl)phenyl)-N-ethyl-N-methylformimidamide]
> 70%: Alternaria solani | Rhizoctonia solani | Pyricularia oryzae

CCN(C)C=Nc1cc(C)c(C(=O)CSc2cccc(C(F)(F)F)c2)cc1C [Compound 60, N′-(2,5-dimethyl-4-(2-((3-(trifluoromethyl)phenyl)thio)acetyl)phenyl)-N-ethyl-N-methylformimidamide]
> 70%: Alternaria solani | Rhizoctonia solani | Pyricularia oryzae

CCN(C)C=Nc1cc(C)c(C(=O)COc2ccc(OC(F)(F)F)cc2)cc1C [Compound 14, N′-(2,5-dimethyl-4-(2-(4-(trifluoromethoxy)phenoxy)acetyl)phenyl)-N-ethyl-N-methylformimidamide]
> 70%: Alternaria solani | Rhizoctonia solani | Pyricularia oryzae

CCN(C)C=Nc1cc(C)c(C(=O)COc2cc(Cl)cc(Cl)c2)cc1C [Compound 97, N′-(4-(2-(3,5-dichlorophenoxy)acetyl)-2,5-dimethylphenyl)-N-ethyl-N-methylformimidamide]
> 70%: Alternaria solani | Rhizoctonia solani | Pyricularia oryzae

CCSc1cccc(OCC(=O)c2cc(C)c(N=CN(C)CC)cc2C)c1 [Compound 111, N-ethyl-N′-(4-(2-(3-(ethylthio)phenoxy)acetyl)-2,5-dimethylphenyl)-N-methylformimidamide]
> 70%: Alternaria solani | Rhizoctonia solani | Pyricularia oryzae

CCN(C)C=Nc1cc(C)c(C(=O)CSc2cccc(Cl)c2)cc1C [Compound 63, N′-(4-(2-((3-chlorophenyl)thio)acetyl)-2,5-dimethylphenyl)-N-ethyl-N-methylformimidamide]
> 70%: Alternaria solani | Rhizoctonia solani | Pyricularia oryzae

CCN(C)C=Nc1cc(C)c(C(=O)CSc2ccc(Br)cc2)cc1C [Compound 22, N′-(4-(2-((4-bromophenyl)thio)acetyl)-2,5-dimethylphenyl)-N-ethyl-N-methylformimidamide]
> 70%: all assays above

CCN(C)C=Nc1cc(C)c(C(=O)CSc2c(C)cccc2C)cc1C [Compound 82, N′-(4-(2-((2,6-dimethylphenyl)thio)acetyl)-2,5-dimethylphenyl)-N-ethyl-N-methylformimidamide]
> 70%: Alternaria solani | Rhizoctonia solani | Pyricularia oryzae

— patent publication US11524934B2, “Phenylamine compounds” (PI INDUSTRIES LTD., priority 2017, dated 2022)
